One experiment has as its target T1, GST C-terminal Bves (UniProt Q9DG23).
T1 sequence: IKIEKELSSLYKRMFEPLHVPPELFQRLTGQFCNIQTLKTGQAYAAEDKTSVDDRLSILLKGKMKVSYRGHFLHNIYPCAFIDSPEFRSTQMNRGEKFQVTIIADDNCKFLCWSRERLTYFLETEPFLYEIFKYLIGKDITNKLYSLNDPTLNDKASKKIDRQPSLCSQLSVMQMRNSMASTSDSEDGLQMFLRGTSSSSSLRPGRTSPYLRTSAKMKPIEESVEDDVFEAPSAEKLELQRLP
The experiment in a line: pull-down; bacterial lysates of GST fusion proteins mixed with lysates of COS-7 cells transfected with Flag-tagged Bves, overnight at 4°C; glutathione beads four hours at 4°C; washed three times with PBS; Western blot with anti-Flag.

The target in experiment [1] is T2, Peptide 13 (SPOTs 13-mer of C-terminal Bves) (UniProt Q9DG23).
T2 sequence (peptide): DKASKKIDRQPSL
The experiment in a line: peptide or protein array; SPOTs: 13-mer peptides fixed on a cellulose membrane; Flag-tagged Bves from transfected COS-7 cells pre-incubated with anti-Flag antibody, on the membrane three hours at room temperature, washed in TBST, HRP secondary antibody, chemiluminescence; second membrane with alanine substitutions of peptide 12 treated identically; only the target purified.

Experiment [2] addresses T3, Peptide 11 (SPOTs 13-mer of C-terminal Bves) (UniProt Q9DG23).
T3 sequence (peptide): NDPTLNDKASKKI
The experiment is described as above.

The target in experiment [3] is T4, Peptide 2 (SPOTs 13-mer of C-terminal Bves) (UniProt Q9DG23).
T4 sequence (peptide): FLETEPFLYEIFK
The experiment is described as above.

In experiment [4] the target is T5, Peptide 10 (SPOTs 13-mer of C-terminal Bves) (UniProt Q9DG23).
T5 sequence (peptide): YSLNDPTLNDKAS
The description is as above.

The target of experiment [5] is T6, Peptide 12 with lysine 272 substituted with alanine (UniProt Q9DG23).
T6 sequence (peptide): TLNDKASAKIDRQ
Described as above.

Experiment [6] concerns the target T7, Peptide 12: ….
T7 sequence (peptide): TLNDKASKKIDRQ
Described as above.

Experiment [7] concerns the target T8, Peptide 12 with lysine 273 substituted with alanine (UniProt Q9DG23).
T8 sequence (peptide): TLNDKASKAIDRQ
The experiment is described as above.

The target of another experiment is T9, GST N-terminal Bves (UniProt Q9DG23).
T9 sequence: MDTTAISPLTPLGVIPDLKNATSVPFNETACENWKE
The experiment in a line: pull-down; bacterial lysates of GST fusion proteins mixed with lysates of COS-7 cells transfected with Flag-tagged Bves, overnight at 4°C; glutathione beads four hours at 4°C; washed three times with PBS; Western blot with anti-Flag.

Results are given in words; binding and its absence hold for the method and conditions named. For some assays here: In cells and extracts the contact can be indirect. Some binding calls cover weakened binding; strength is not graded here. Tags and fused reporters may be left off the sequences shown.

B1: Del-4 Bves (domain or fragment, UniProt Q9DG23 1-284)
chain: MDTTAISPLTPLGVIPDLKNATSVPFNETACENWKEIHHLVFHVANICFAAGLVIPTTLNLHMIFLRGLLTVGCALFIIWATLYRCALDIMIWNSVFLVVNLLHFIYLVYKRRPIKIEKELSSLYKRMFEPLHVPPELFQRLTGQFCNIQTLKTGQAYAAEDKTSVDDRLSILLKGKMKVSYRGHFLHNIYPCAFIDSPEFRSTQMNRGEKFQVTIIADDNCKFLCWSRERLTYFLETEPFLYEIFKYLIGKDITNKLYSLNDPTLNDKASKKIDRQPSLCSQL
Take B1: the binding entry with GST C-terminal Bves is “binds”.

B2: Del-5 Bves (domain or fragment, UniProt Q9DG23 1-309)
chain: MDTTAISPLTPLGVIPDLKNATSVPFNETACENWKEIHHLVFHVANICFAAGLVIPTTLNLHMIFLRGLLTVGCALFIIWATLYRCALDIMIWNSVFLVVNLLHFIYLVYKRRPIKIEKELSSLYKRMFEPLHVPPELFQRLTGQFCNIQTLKTGQAYAAEDKTSVDDRLSILLKGKMKVSYRGHFLHNIYPCAFIDSPEFRSTQMNRGEKFQVTIIADDNCKFLCWSRERLTYFLETEPFLYEIFKYLIGKDITNKLYSLNDPTLNDKASKKIDRQPSLCSQLSVMQMRNSMASTSDSEDGLQMFLRG
As for B2, in the experiment with GST C-terminal Bves, the binding entry is “binds”.

B3: Flag-tagged Wild Type (WT) Bves (protein, UniProt Q9DG23 1-357)
chain: MDTTAISPLTPLGVIPDLKNATSVPFNETACENWKEIHHLVFHVANICFAAGLVIPTTLNLHMIFLRGLLTVGCALFIIWATLYRCALDIMIWNSVFLVVNLLHFIYLVYKRRPIKIEKELSSLYKRMFEPLHVPPELFQRLTGQFCNIQTLKTGQAYAAEDKTSVDDRLSILLKGKMKVSYRGHFLHNIYPCAFIDSPEFRSTQMNRGEKFQVTIIADDNCKFLCWSRERLTYFLETEPFLYEIFKYLIGKDITNKLYSLNDPTLNDKASKKIDRQPSLCSQLSVMQMRNSMASTSDSEDGLQMFLRGTSSSSSLRPGRTSPYLRTSAKMKPIEESVEDDVFEAPSAEKLELQRLP
As for B3, the binding result in experiment [1] is “binds”; in experiment [2], “binds”; in experiment [3], “no binding”; in experiment [4], “no binding”; in experiment [5] it was “no binding”; in [6], “binds”. The binding entry in experiment [7] is on record as “no binding”; with GST C-terminal Bves, “binds”; with GST N-terminal Bves, “no binding”.

B4: WT Bves protein devoid of glycosylation products (protein, UniProt Q9DG23 1-357)
chain: B3 chain
modifications: devoid of glycosylation products (tunicamycin)
Turning to B4, the binding entry with GST C-terminal Bves is given as “binds”; with GST N-terminal Bves, “no binding”.

B5: Del-3 Bves (domain or fragment, UniProt Q9DG23 1-251)
chain: MDTTAISPLTPLGVIPDLKNATSVPFNETACENWKEIHHLVFHVANICFAAGLVIPTTLNLHMIFLRGLLTVGCALFIIWATLYRCALDIMIWNSVFLVVNLLHFIYLVYKRRPIKIEKELSSLYKRMFEPLHVPPELFQRLTGQFCNIQTLKTGQAYAAEDKTSVDDRLSILLKGKMKVSYRGHFLHNIYPCAFIDSPEFRSTQMNRGEKFQVTIIADDNCKFLCWSRERLTYFLETEPFLYEIFKYLIG
Take B5: the binding result (in experiment [1]; in [2]; in experiment [6]; with GST C-terminal Bves) was “no binding” throughout.

(Values after paper PMC2373926.)
